Results reported in PubChem BioAssay AID1345082 (National Center for Advancing Translational Sciences (NCATS), 2018).
Screen size: about 94,000 compounds; about 4,000 (4.3%) were called active. The shares of active, inactive and inconclusive entries below differ from those in the screen. Calls follow the shape of the dose curve; as a rule, active = well fitted inhibition curve with a large enough effect; inconclusive = small, poorly fitted or top-dose-only effect; inactive = no such curve, though single readings can be large or run the other way. A potency beside an inconclusive call is a rough fit, not a confirmed value.

assay: Cytotoxic Profiling in NIH 3T3 Cell Line of Diverse Libraries Using Quantitative High-Throughput Screening; settings: NIH 3T3 viability, CellTiter-Glo ATP luminescence, 48-72 h; series mostly up to 96.7 µM; also: nearly all actives have a fitted effect of over 55% in size
Method in brief: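 Luminescent ATP readout (CellTiter-Glo, 10 min RT) after 48 or 72 hr compound exposure of NIH 3T3 cells seeded at 400 cells/well in 1536-well format; quantitative HTS.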
Potency is read from the fitted curve at half-maximal effect; tags tell the direction and shape of the fitted curve.

Row | Compound | Potency
1 | CCCCCNC(=O)Cc1csc2nc(C)c(-c3cc(C)n(-c4cccc(C)c4)n3)c(=O)n12 | inconclusive: 11.2 µM [inhibitor, full curve, poor fit]
2 | COc1cccc(Nc2cc(CN3CCC(C)(NC(C)=O)CC3)cc(OC)c2)c1 | active: 100 µM
3 | O=C(CCCc1ccccc1)N1CCN(C2CCN(Cc3cccnc3)C2=O)CC1 (stereo unspecified) | inactive
4 | CCOC(=O)c1ccccc1NC(=O)Cn1c(N2CCc3ccccc3C2)nc(C)cc1=O | inactive
5 | CC(C)CN1C(=O)C(C)(C)[S+](=O)([O-])[C@@H]2CN(c3ccc(OC(F)(F)F)cc3)C[C@@H]21 | inconclusive: 39.8 µM [inhibitor, partial curve]
6 | CC1=C[C@@H](CNC(=O)c2ccccc2)[C@H](C(C)C)C[C@H]1CC(=O)N1CCCC1 | inconclusive: 79.4 µM [inhibitor, partial curve]
7 | C[S+](=O)([O-])c1ccc(-c2nc(C(=O)N3CCOCC3)n3ccncc23)cc1 | inactive
8 | O=C(Cn1nc2c(cc1=O)CCCC2)NC1CCCc2c1[nH]c1c(Cl)cccc21 (stereo unspecified) | inactive
9 | COc1cccc(CCC(=O)NCCC2CCN(C(=O)Nc3ccc(F)cc3)CC2)c1 | inactive
10 | O=C(Nc1ccc(Cl)cc1)c1nc2c(o1)CCN(CC1CCCC1)CC2 | inconclusive: 56.2 µM [inhibitor, partial curve, poor fit]
11 | COCCNc1ncnc2c1CN(c1ccc(C)cc1)C(=O)N(C)C2 | inconclusive: 112 µM [inhibitor, single point]
12 | Cc1cc(=O)n(CC(=O)Nc2cccc(C(C)C)c2)c(N2CCOCC2)n1 | inactive
13 | COCCCNC(=O)c1ccc2c(c1)n(Cc1ccc(OC)cc1)c(=O)c1ccnn12 | inconclusive: 44.7 µM [inhibitor, partial curve, poor fit]
14 | CCc1ccc(S(=O)(=O)N2CCCN(C)c3ccccc32)cc1 | inconclusive: 39.8 µM [inhibitor, partial curve, poor fit]
15 | COc1cc2c(cc1OC)CN(C(=O)C[C@@H]1CCNC[C@@H]1Cc1cc(-c3ccccc3)on1)CC2 | inconclusive: 70.8 µM [inhibitor, single point]
16 | CC1CCN(C(=O)[C@@H](C)C2CC[C@@]3(C)CC[C@H](NC(=O)COc4ccccc4)[C@@H](C)[C@@H]3[C@H]2O)CC1 (stereo partly specified) | inconclusive: 50.1 µM [inhibitor, partial curve, poor fit]
17 | CN(Cc1cnc2ccccn12)C(=O)c1cc(COc2ccc(F)cc2F)on1 | inconclusive: 14.1 µM [inhibitor, full curve, poor fit]
18 | CCS[C@H]1CCN2C(=O)c3cc(-c4cc(Cl)ccc4OC)ccc3NC(=O)[C@H]12 | inconclusive: 112 µM [inhibitor, partial curve, poor fit]
19 | CN1C(=O)CCCCC1C(=O)NCCc1c[nH]c2ccccc12 (stereo unspecified) | inactive
20 | O=C([C@H]1CCC[C@@H](O)C1)N1CCN(Cc2ccc(C(F)(F)F)cc2)CC1 | inactive
21 | CC(C)Oc1ccc(CN2CCC(CO)(CN3CCCC3)CC2)cc1Cl | active: 31.6 µM

Row | Compound | Potency
22 | CCOc1ccccc1CN1CCC2(CCN(C(=O)N(C)C)CC2)Oc2ccccc21 | inconclusive: 44.7 µM [inhibitor, partial curve, poor fit]
23 | Cc1cc(F)ccc1NC(=O)CN1C(=O)NC2(CCCCC2)C1=O | inactive
24 | CCc1noc(-c2cn(C3CCN(C(=O)c4ccc(C)s4)C3)nn2)n1 (stereo unspecified) | inactive
25 | CCOc1cccc(-c2noc(-c3ncn4c3COC(c3ccc(F)cc3)C4)n2)c1 (stereo unspecified) | inconclusive: 56.2 µM [inhibitor, partial curve, poor fit]
26 | COc1ccc(-c2c(C(=O)NCC(C)C)nc3sccn23)cc1 | inconclusive: 79.4 µM [inhibitor, partial curve]
27 | COCC(=O)Nc1cc(-c2ccccn2)nn1-c1ccccc1 | inactive
28 | Cc1ncccc1-c1nc2cc(C(=O)NC3CC3)ccc2o1 | active: 89.1 µM
29 | COc1cc(NC(=O)COc2ccc(-c3nnc4n3CCCC4)cc2)cc(OC)c1OC | inconclusive: 70.8 µM [inhibitor, single point]
30 | O=C(COc1ccc(F)cc1)NCC1Cn2cccc2CN1Cc1ccccc1 (stereo unspecified) | inconclusive: 70.8 µM [inhibitor, single point]
31 | O=C(NCc1ccccn1)c1nc2sccn2c1-c1ccccc1 | inconclusive: 63.1 µM [inhibitor, partial curve, poor fit]
32 | Cc1ccc(C)c(S(=O)(=O)N2CCN(C3CCN(CCc4ccccc4)C3=O)CC2)c1 (stereo unspecified) | inconclusive: 50.1 µM [inhibitor, partial curve, poor fit]
33 | COc1ccc(-c2ccccc2C(=O)N2CCC(NC(=O)C(C)(C)C)CC2)nn1 | inactive
34 | Cc1ccccc1C(=O)N(C)Cc1cccc(C(F)(F)F)c1 | inconclusive: 89.1 µM [inhibitor, partial curve, poor fit]
35 | COc1ccc(CC(=O)N(C)Cc2cccc(C(F)(F)F)c2)cc1 | inconclusive: 89.1 µM [inhibitor, partial curve, poor fit]
36 | Cc1cc(F)ccc1NC(=O)CCC1CCCN(C(=O)CC2=CCCCC2)C1 (stereo unspecified) | inconclusive: 50.1 µM [inhibitor, partial curve, poor fit]
37 | COC(=O)C1=CN(CC(=O)Nc2cccc(F)c2)S(=O)(=O)N=C1C | inactive
38 | CNC(=O)[C@@H]1CN(C(=O)C2CC=CCC2)C[C@H]1c1nc(COC)no1 (stereo partly specified) | inconclusive: 79.4 µM [inhibitor, partial curve, poor fit]
39 | COc1ccc(F)cc1-c1ccc(CN2CCC(NC(=O)c3ccc(F)cc3)C2)cc1 (stereo unspecified) | inconclusive: 28.2 µM [inhibitor, full curve, poor fit]
40 | O=C(NCC1CC1)C1CCN(C(=O)c2ccc(-c3cccs3)cc2)CC1 | inconclusive: 50.1 µM [inhibitor, partial curve, poor fit]
41 | COc1ccc(-c2cc(N3CCCC(NC(=O)c4ccc(F)cc4F)C3)n[nH]2)cc1 (stereo unspecified) | inconclusive: 50.1 µM [inhibitor, partial curve, poor fit]
